Results reported in PubChem BioAssay AID485294 (National Center for Advancing Translational Sciences (NCATS), 2010).
In all, about 370,000 compounds went through this assay and about 150 (0.041%) were called active. This list was built around the results that the source calls inconclusive (neither active nor inactive); the mix of calls is not that of the screen. Calls come from the whole dose curve; as a rule, active = well fitted inhibition curve with a large enough effect; inconclusive = small, poorly fitted or top-dose-only effect; inactive = flat fitted curve, though single readings scatter. Potencies of inconclusive entries are left out as doubtful fits.
Note: nearly all actives have a fitted effect of over 25% in size.
Potency is the fitted concentration of half-maximal effect; tags give direction and shape of the fitted curve.

Each molecule was assayed against Beta-lactamase (Escherichia coli (strain K12)) (UniProt P00811) (assay: qHTS Inhibitors of AmpC Beta-Lactamase (assay with detergent)). Details: AmpC hydrolysis of nitrocefin, absorbance 480 nm, 0.01% Triton; series mostly up to 114 µM.
Chain of UniProt P00811 (P00811 whole entry, looked up): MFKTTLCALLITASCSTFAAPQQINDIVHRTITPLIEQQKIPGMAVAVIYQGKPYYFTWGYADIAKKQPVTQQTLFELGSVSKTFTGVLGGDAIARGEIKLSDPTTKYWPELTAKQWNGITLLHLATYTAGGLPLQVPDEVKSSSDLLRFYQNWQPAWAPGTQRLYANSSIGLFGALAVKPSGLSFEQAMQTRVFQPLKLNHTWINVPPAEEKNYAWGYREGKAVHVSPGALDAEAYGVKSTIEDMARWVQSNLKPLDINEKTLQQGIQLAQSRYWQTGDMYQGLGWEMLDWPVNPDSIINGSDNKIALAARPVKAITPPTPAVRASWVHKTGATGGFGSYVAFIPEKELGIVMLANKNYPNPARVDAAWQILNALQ
Outline: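 AmpC (5.3 nM in the dispensed reagent) in 20 mM phosphate pH 7.0 with 0.01% (detergent screen) or 0.0001% Triton X-100 was preincubated with compounds for 15 min at room temperature. Nitrocefin was then added from an 800 uM solution, and hydrolysis was followed at 480 nm.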
`CCCn1c(=N)c(C(=O)NCc2ccc3c(c2)OCO3)cc2c(=O)n3cccc(C)c3nc21` was tested, and the Potency was inconclusive [inhibitor, full curve, poor fit]. In the case of `COC(=O)C(Cc1ccccc1)NC(=O)CSc1nc(C)cc(=O)[nH]1` (stereo not given), the Potency is reported as inconclusive [inhibitor, full curve, poor fit]. `COc1ccc(S(=O)(=O)NC2CC3CCC2C3)cc1Br` (stereo not given) was tested, and the Potency was inconclusive [inhibitor, full curve, poor fit]. `Cc1ccc(-c2nn(-c3ccccc3)cc2NC(=O)CCl)cc1` was tested, and the Potency was inconclusive [inhibitor, full curve, poor fit]. `CCCCNC(=O)C1CCN(S(=O)(=O)c2c(C)noc2/C=C\c2ccc(OC)cc2)CC1` was tested, and the Potency was inconclusive [inhibitor, full curve, poor fit]. In the case of `COc1ccc(CNC(=O)CSc2n[nH]c(N)n2)cc1OC`, the Potency is reported as inconclusive [inhibitor, partial curve]. For `COC(=O)C1CN(C(=O)c2ccc(OC(F)F)cc2)c2ccccc2O1` (stereo not given), the Potency was inconclusive [inhibitor, full curve, poor fit]. In the case of `O=C(CCNS(=O)(=O)c1ccccc1)N1CCCCCC1`, the Potency is reported as inconclusive [inhibitor, full curve, poor fit]. `Cc1cc(C)n2c(=S)[nH]nc2n1` was tested, and the Potency was inconclusive [inhibitor, partial curve, poor fit]. With `Cc1cccc(COc2ncnc3nc[nH]c23)c1` the Potency was “inactive”. For `CC(OC(=O)CNC(=O)c1ccc(Cl)cc1)C(=O)NC1CCCCC1C` (stereo not given), the Potency was inconclusive [inhibitor, single point]. With `CN(C)c1ccc(NC(=O)CSc2nc3c(c(=O)[nH]2)CCCC3)cc1` the Potency was inconclusive [inhibitor, full curve, poor fit]. With `CCCn1c2ccccc2c2nnc(SCC(=O)Nc3cccc(C(C)=O)c3)nc21` the Potency was “inactive”. With `O=C(O)/C(=C\c1cn(-c2ccccc2)nc1-c1cccnc1)NC(=O)c1ccccc1` the Potency was inconclusive [inhibitor, full curve, poor fit]. `CCN(Cc1ccccc1)C(=O)c1cnn(-c2ccc(F)cc2)c1-n1cccc1` was tested, and the Potency was “inactive”. In the case of `O=C1NCCCC2c3c(cc(Br)c(O)c3Br)OC12N1CCCCC1` (stereo not given), the Potency is reported as “inactive”. For `O=C1CC(SCc2nc3ccccc3[nH]2)C(=O)N1c1ccc(Cl)cc1` (stereo not given), the Potency was inconclusive [inhibitor, partial curve]. In the case of `CCOC(=O)CC(=O)CSc1nc(C)nc2c1oc1ccccc12`, the Potency is reported as inconclusive [inhibitor, single point]. In the case of `CC(=O)c1ccc(OC(=O)C2CSC3(C)CCC(=O)N23)cc1` (stereo not given), the Potency is reported as inconclusive [inhibitor, full curve]. For `CCOc1cc(/C=C2\C(=O)N(Cc3ccc(C)cc3)C(C)=C2C(=O)OC)ccc1O`, the Potency was inconclusive [inhibitor, full curve]. With `CC(C)c1ccc(-c2nnn(CC(=O)N3CCCCC3)n2)cc1` the Potency was “inactive”. `COC(=O)N/N=C/c1c(C)nn(-c2cccc(Cl)c2)c1Cl` was tested, and the Potency was “inactive”. With `O=C(COC(=O)Cc1ccccc1)NCCNC(=O)COC(=O)Cc1ccccc1` the Potency was inconclusive [inhibitor, partial curve, poor fit]. With `O=C(CCC(=O)c1cccs1)OCC(=O)N1CCN(S(=O)(=O)c2ccccc2)CC1` the Potency was inconclusive [inhibitor, full curve]. For `CCc1ccc(S(=O)(=O)Nc2ccc(O)c3ccccc23)cc1`, the Potency was “inactive”. For `COC(=O)c1ccc2nc(NC(=O)C(C)(C)C)sc2c1`, the Potency was “inactive”. With `CN(C)c1ccc(NC2=C(Cl)C(=O)c3ccccc3C2=O)cc1` the Potency was inconclusive [inhibitor, full curve]. For `Cc1nn(-c2ccccc2)cc1/C=N/O`, the Potency was “inactive”. In the case of `CN(C(=O)c1cccc(C#N)c1)c1nnc(C2CCOC2)s1` (stereo not given), the Potency is reported as inconclusive [inhibitor, single point]. `CCOCCCNC(=O)c1cccs1` was tested, and the Potency was inconclusive [inhibitor, full curve, poor fit]. In the case of `CC(=O)Nc1ccc(S(=O)(=O)N(C)CC(=O)N(C)Cc2sccc2C)cc1`, the Potency is reported as “inactive”. `CC(C)(C)NCc1cc(Br)ccc1OC1CCCC1` was tested, and the Potency was inconclusive [inhibitor, single point]. For `Cc1ccc2nc(-c3ccccn3)cc(C(=O)NC3CCN(C)CC3)c2c1`, the Potency was “inactive”. `CCN1CCN(c2ncc(C(=O)Nc3cc(Cl)c(OC)cc3OC)c3ccccc23)CC1` was tested, and the Potency was inconclusive [inhibitor, partial curve, poor fit]. In the case of `COc1ccc(CNC(=O)c2cc(=O)c3c(C)cc(C)cc3o2)cc1`, the Potency is reported as inconclusive [inhibitor, single point]. In the case of `Cc1ccc(N(CC(=O)N2CCCCCC2)S(C)(=O)=O)cc1Cl`, the Potency is reported as inconclusive [inhibitor, full curve, poor fit]. With `O=S(=O)(c1ccccc1)N(CC1CO1)c1cccc2ccccc12` (stereo not given) the Potency was “inactive”. For `ONC(=Nc1ccc(Cl)cc1)c1ccccc1Cl`, the Potency was inconclusive [inhibitor, full curve, poor fit]. `C[C@@H]1CN=C2N(CCNC(=O)CCC3CCCCC3)[C@H](Cc3ccc(O)cc3)CN21` was tested, and the Potency was “inactive”. In the case of `O=C(CCCC(=O)N(CC(=O)NC1CCCC1)c1cccc(F)c1)Nc1ccccn1`, the Potency is reported as inconclusive [inhibitor, full curve, poor fit]. For `Cc1ccc(-c2csc(N3CCC[C@@H]3C(=O)NCCn3c(-c4ccncc4)nc4ccccc43)n2)cc1`, the Potency was “inactive”. In the case of `CC(=O)c1cccc(NS(=O)(=O)c2ccc(N/C=C\C(=O)c3ccc(F)cc3)cc2)c1`, the Potency is reported as “inactive”. In the case of `CCn1c(=O)c(C(=O)NCc2ccc(OC)c(OC)c2)c(O)c2ccccc21`, the Potency is reported as inconclusive [inhibitor, full curve]. With `CSCCOC(=O)c1[nH]c2c(c1C)C(=O)CC(c1ccco1)C2` (stereo not given) the Potency was inconclusive [inhibitor, full curve, poor fit]. In the case of `COCCNC(=O)C(c1ccncc1)N(Cc1ccccc1)C(=O)Cn1nnc2ccccc21` (stereo not given), the Potency is reported as inconclusive [inhibitor, full curve]. In the case of `N=c1c2c(ncn1CCCO)Oc1c(ccc3ccccc13)C2c1ccccc1` (stereo not given), the Potency is reported as “inactive”. In the case of `CCOC(=O)c1[nH]c2ccccc2c1NC(=O)c1ccc(Br)cc1`, the Potency is reported as “inactive”. In the case of `O=C(Nc1nncs1)C1c2ccccc2Oc2ccccc21`, the Potency is reported as inconclusive [inhibitor, full curve]. With `Cc1ccc(NC(=O)COC(=O)Cc2csc(-c3cccc(F)c3)n2)cc1C` the Potency was inconclusive [inhibitor, full curve]. For `CCC(=O)N(Cc1cc2ccccc2[nH]c1=O)C(C)C`, the Potency was inconclusive [inhibitor, partial curve, poor fit]. In the case of `CC(NC(=O)Cc1ccsc1)c1ccc(F)cc1` (stereo not given), the Potency is reported as inconclusive [inhibitor, full curve]. `O=C(OCCCN1C(=O)c2ccccc2C1=O)c1ccco1` was tested, and the Potency was inconclusive [inhibitor, full curve]. `[O-][n+]1c(/C=C/c2ccccc2)ccc2ccccc21` was tested, and the Potency was inconclusive [inhibitor, full curve, poor fit]. With `NNC(=O)Cc1cn(-c2ncc(C(F)(F)F)cc2Cl)c2ccccc12` the Potency was inconclusive [inhibitor, full curve, poor fit]. With `Cc1ccc(-c2nnc(-c3ccccc3)o2)cc1` the Potency was “inactive”. In the case of `COc1cc(OC)c(C(=O)N/N=C/c2ccoc2)cc1OC`, the Potency is reported as inconclusive [inhibitor, full curve]. In the case of `O=C(Nc1ccccc1Cl)N1CCN(Cc2ccc3c(c2)OCO3)CC1`, the Potency is reported as inconclusive [inhibitor, full curve, poor fit]. For `O=S(=O)(c1ccc(NC(=S)NCc2cccnc2)cc1)N1CCCCC1`, the Potency was “inactive”. For `COc1cc(OC)cc(-c2nc(-c3ccc4c(c3)[nH]c(=O)n4C)no2)c1`, the Potency was “inactive”. With `O=C1C2CCCN2C(c2cccnc2)N1c1cccc(Cl)c1` (stereo not given) the Potency was inconclusive [inhibitor, full curve, poor fit]. `CCc1ccc(NC(=O)Cn2c(=O)n(CCCCC(=O)NCCc3ccc(Cl)cc3)c(=O)c3ccccc32)cc1` was tested, and the Potency was “inactive”. In the case of `O=C(c1cccc(NS(=O)(=O)c2ccc(F)c(F)c2)c1)N1CCCCC1`, the Potency is reported as inconclusive [inhibitor, full curve]. For `CN(C)C(/C=C/Nc1ccc(F)cc1F)=C(C#N)C#N`, the Potency was inconclusive [inhibitor, single point]. `Cc1ccc(N2C(=N)/C(=C3/Nc4ccccc4S3)C(c3ccccc3)C2=O)cc1` (stereo not given) was tested, and the Potency was inconclusive [inhibitor, full curve]. For `CCn1nc(C(=O)Nc2ccc(C)c(C)c2)c(Cl)c1Cl`, the Potency was “inactive”. For `O=C(CSCC(=O)N1CCOCC1)Nc1nc(-c2ccc3c(c2)OCO3)cs1`, the Potency was inconclusive [inhibitor, full curve]. For `COC(=O)C1CCN(C(=O)COC(=O)CSc2ccc(C(N)=O)cc2[N+](=O)[O-])CC1`, the Potency was inconclusive [inhibitor, full curve]. For `Cc1ccc(/C=C2\SC(=S)N(c3c(C)n(C)n(-c4ccccc4)c3=O)C2=O)cc1`, the Potency was “inactive”. In the case of `CN1C(=O)N(C)C(=O)C2(Cc3cc(N)ccc3N3CCN(c4ccccc4F)CC32)C1=O` (stereo not given), the Potency is reported as “inactive”. For `COc1cccc(N=Nc2c(=O)[nH]n3c(=O)c4c([nH]c23)CCC4)c1`, the Potency was inconclusive [inhibitor, full curve, poor fit].
